Data: PubChem BioAssay AID686979 (National Center for Advancing Translational Sciences (NCATS), 2013)
The whole screen tested about 420,000 compounds, of which about 50,000 (12%) were called active. Inconclusive results, whose numbers are uncertain, are shown with a selection of clear calls. Calls follow the shape of the dose curve; as a rule, active = well fitted inhibition curve with a large enough effect; inconclusive = small, poorly fitted or top-dose-only effect; inactive = flat fitted curve, though single readings scatter. No potency is given beside an inconclusive call; the fits are too rough.

Assay: qHTS for Inhibitors of human tyrosyl-DNA phosphodiesterase 1 (TDP1): qHTS in cells in presence of CPT; also: nearly all actives have a fitted effect of over 55% in size
Settings: chicken DT40 Tdp1-/-;hTDP1 cells + 20 nM CPT, ATP luminescence, 48 h; series mostly up to 46.2 µM
How it was run: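 Chicken DT40 Tdp1-/- cells complemented with human TDP1, 400 cells/well, exposed to compounds plus 20 nM camptothecin for at least 48 h at 37 C; viability read as ATP content by CellTiter-Glo luminescence.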
Potency is read from the fitted curve at half-maximal effect; tags tell the direction and shape of the fitted curve.

SMILES | Potency
CCn1c(=O)c2sccc2n2c(CCC(=O)Nc3cc(C)cc(C)c3)nnc12 | inactive
Cc1ccc(-c2noc(CN(C(=O)C(c3ccccc3)c3ccccc3)C(C)C)n2)cc1 | active: 18.4 µM
CCCCNC(=O)CSc1nccn1Cc1ccccc1 | inactive
Cc1ccc(NC(=O)Cn2cc(S(=O)(=O)c3ccc(F)cc3)c(=O)c3cc(F)ccc32)cc1 | inconclusive [inhibitor, single point]
O=C(N/N=C/c1cccs1)c1cc(-c2ccc3ccccc3c2)n[nH]1 | inconclusive [inhibitor, single point]
CCOc1ccc(-c2nnc(SCc3nnc(-c4ccccc4)o3)n2-c2ccccc2F)cc1 | active: 16.4 µM
COc1ccc(Sc2ccc(NC(=O)c3cccc(Cl)c3)cc2C#N)cc1 | inconclusive [inhibitor, partial curve]
COc1cccc(NS(=O)(=O)c2ccc3c(c2)CC(=O)N3)c1 | inactive
Cc1ccc(-n2ncc3c2CCCC3NC(=O)c2cnccn2)cc1C (centres undefined) | active: 20.6 µM
CCOC(=O)c1c(SCC(=O)Nc2nccs2)nc(C)c(C)c1C | inconclusive [inhibitor, single point]
CNc1ccc(N=Nc2cccc3ncccc23)cc1 | inconclusive [inhibitor, partial curve, poor fit]
CC1CCc2sc3ncnc(N4CCOCC4)c3c2C1 (centres undefined) | inconclusive [inhibitor, partial curve]
COc1cccc(N=C2C(=O)N3CCCc4cccc2c43)c1 | inconclusive [inhibitor, single point]
COc1ccc(CNc2ccc3cn[nH]c3c2)c(OC)c1OC | inconclusive [inhibitor, partial curve, poor fit]
Cc1ccc(Cl)cc1N1CCN(c2ncnc3onc(C)c23)CC1 | active: 6.51 µM
COc1ccc2c(c1)CC(C(=O)NCCCN1CCN(c3ccc(F)cc3)CC1)CO2 (centres undefined) | active: 20.6 µM
CCN(CC)S(=O)(=O)c1ccc(N/N=C/c2ccc(O)cc2)nc1 | inconclusive [inhibitor, partial curve, poor fit]
COc1ccc(NS(=O)(=O)c2cc(NC(=O)c3cc(F)c(F)c(F)c3F)ccc2N2CCCC2)cc1 | inconclusive [inhibitor, single point]
C[C@H](CO)N1C[C@H](C)[C@H](CN(C)C(=O)NC2CCCCC2)Oc2cc(-c3cccnc3)ccc2S1(=O)=O | inconclusive [inhibitor, single point]
O=S(=O)(Nc1cccc2c1CCCC2)c1cccc(C(F)(F)F)c1 | inconclusive [inhibitor, single point]
O=C(CSCc1ccccc1)N1CCN(c2ccc(F)cc2)CC1 | active: 13 µM
CC(C)(C)N=C1NN=C(c2ccc(S(=O)(=O)N3CCCCC3)cc2)CS1 | active: 16.4 µM

SMILES | Potency
CSCCC(NC(=O)COc1ccccc1)C(=O)NCC1COc2ccccc2O1 (centres undefined) | inconclusive [inhibitor, single point]
CS(=O)(=O)c1cccc(C(=O)Nc2cccc(-c3nc4ccccc4[nH]3)c2)c1 | inconclusive [inhibitor, single point]
COCCOC1CCN(Cc2cn(Cc3ccccc3)nc2-c2cc3ccccc3o2)CC1 | inconclusive [inhibitor, single point]
COC(=O)COc1ccc(C2Nc3c(Cl)ccc(C(=O)O)c3C3C=CCC32)cc1 (centres undefined) | inactive
COCCCNC(=O)c1ccc2c(c1)ncn2-c1ccccc1OC | inconclusive [inhibitor, single point]
CCc1cc2c(SCC(=O)c3ccc(Cl)s3)ncnc2s1 | inconclusive [inhibitor, single point]
Cc1ccc(C(=O)N2CCN(c3nc4ccccc4n3C)CC2)cc1 | inconclusive [inhibitor, single point]
CCC(c1nnnn1C(C)(C)C)N1CCN(c2cc(Cl)ccc2C)CC1 (centres undefined) | inconclusive [inhibitor, single point]
O=S(=O)(c1ccc(OCc2ccc(Br)cc2)cc1)N1CCOCC1 | inconclusive [inhibitor, single point]
O=C(O)CCCCn1c(SCc2ccccc2Cl)nc2ccsc2c1=O | inconclusive [inhibitor, single point]
CN1C(=O)c2cccc3c(S(=O)(=O)Nc4ccccn4)ccc1c23 | inconclusive [inhibitor, single point]
CC(C)(Oc1ccc(Cl)cc1)C(=O)N(Cc1ccccc1)c1ccccn1 | inconclusive [inhibitor, single point]
COc1cccc(-c2nc(-c3ccccc3)[nH]c(=O)c2C#N)c1 | inconclusive [inhibitor, single point]
CCCN(CCC)C(=O)CC(c1ccccc1)C1CCOC(C)(C)C1 (centres undefined) | inconclusive [inhibitor, single point]
CCCCC1=CC2=CC(=O)C(C)(OC(=O)CC)C(=O)C2=CN1c1ccccc1 (centres undefined) | inconclusive [inhibitor, single point]
CCCCN(C)C(=O)c1ccc(Nc2nc(C(N)COCc3ccccc3)cs2)nc1 (centres undefined) | active: 11.6 µM
COc1cc2oc(=O)cc(CN3CCN(c4ccccc4F)CC3)c2cc1Cl | inconclusive [inhibitor, full curve, poor fit]
CCOc1ccc(CCNC(=O)CN2C(=O)C(CC)Oc3ccccc32)cc1OCC (centres undefined) | inconclusive [inhibitor, single point]
Cc1cccc(NC(=O)CNCC(=O)Nc2cccc(C)c2C)c1C | inactive
CC(C)CC1Nc2ncnc(N3CCOCC3)c2N(Cc2ccc(Br)cc2)C1=O (centres undefined) | inconclusive [inhibitor, single point]
Cc1ccc(N(CC(=O)O)S(C)(=O)=O)cc1 | inactive
Cc1cccc(NC(=O)C2CCN(S(=O)(=O)c3cccs3)CC2)c1 | inactive
